Out of some 310,000 compounds screened, about 14,000 (4.5%) showed an effect of 50% or more. The effect is printed as a negative number. The list shows a part of the results.
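Note: peak tail current of the secondary pulse compared with the same well before compound.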

The target in this assay is human ether-à-go-go-related gene (hERG) potassium channel (human, UniProt Q12809). The assay can be described thus: primary screen, population patch clamp on CHO cells stably expressing hERG.
Sequence of human ether-à-go-go-related gene (hERG) potassium channel (Q12809 whole entry, looked up): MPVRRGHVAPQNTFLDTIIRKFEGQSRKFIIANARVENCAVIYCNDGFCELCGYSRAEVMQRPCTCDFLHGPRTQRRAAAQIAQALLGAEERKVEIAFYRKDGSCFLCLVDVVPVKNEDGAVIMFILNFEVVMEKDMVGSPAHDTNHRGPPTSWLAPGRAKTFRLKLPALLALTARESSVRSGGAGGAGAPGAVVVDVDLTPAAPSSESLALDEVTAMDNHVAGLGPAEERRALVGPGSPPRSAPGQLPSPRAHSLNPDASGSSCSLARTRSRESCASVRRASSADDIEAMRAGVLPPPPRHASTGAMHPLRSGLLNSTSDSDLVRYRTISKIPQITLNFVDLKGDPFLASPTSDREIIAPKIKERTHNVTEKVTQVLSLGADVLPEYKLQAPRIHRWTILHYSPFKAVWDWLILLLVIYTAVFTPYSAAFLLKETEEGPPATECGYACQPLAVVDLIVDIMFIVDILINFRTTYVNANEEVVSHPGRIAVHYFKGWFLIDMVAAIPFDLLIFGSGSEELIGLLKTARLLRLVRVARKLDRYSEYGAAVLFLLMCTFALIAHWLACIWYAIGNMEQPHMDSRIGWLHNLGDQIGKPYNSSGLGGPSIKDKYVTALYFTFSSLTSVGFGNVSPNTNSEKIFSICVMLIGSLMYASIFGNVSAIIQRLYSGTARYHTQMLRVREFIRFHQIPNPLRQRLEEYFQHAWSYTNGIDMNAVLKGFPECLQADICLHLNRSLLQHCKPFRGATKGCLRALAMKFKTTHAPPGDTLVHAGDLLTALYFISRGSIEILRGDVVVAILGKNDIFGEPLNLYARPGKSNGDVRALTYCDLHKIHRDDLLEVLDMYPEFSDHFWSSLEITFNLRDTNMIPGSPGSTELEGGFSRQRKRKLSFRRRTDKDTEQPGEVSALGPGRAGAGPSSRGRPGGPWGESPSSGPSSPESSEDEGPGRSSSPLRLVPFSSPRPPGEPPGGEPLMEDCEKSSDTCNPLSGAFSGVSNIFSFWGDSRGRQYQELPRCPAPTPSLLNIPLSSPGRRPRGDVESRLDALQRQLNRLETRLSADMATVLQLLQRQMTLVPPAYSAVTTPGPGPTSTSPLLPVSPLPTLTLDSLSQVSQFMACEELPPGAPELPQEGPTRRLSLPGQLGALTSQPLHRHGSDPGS
`CCC(C)c1ccccc1N1CC(C(=O)N2CCN(S(=O)(=O)c3ccccc3Br)CC2)CC1=O` (stereo not drawn): the “hERG current change (%, negative = inhibition) at 10uM” value was -16.2%. Consider `CCN1CCN(CCNC(=O)c2cc(Cl)c(NC(=O)C3=C(C)OCCS3)cc2OC)CC1`, for which the “hERG current change (%, negative = inhibition) at 10uM” value was -73.4%. For `O=C(Nc1nc2cc3c(cc2s1)OCO3)c1cccc(N2C(=O)CCC2=O)c1` the value was 0.324%; for `COc1ccc(-c2nsc(SCC(=O)Nc3cc(C)on3)n2)cc1`, 11.8%. In the case of `CCC(=O)NC1CCN(C(=S)NC)CC1` it was 7.36%; in that of `CCN(Cc1ccc(O)cc1)CC1CCCN(CCc2cccc(F)c2)C1` (stereo not drawn), -71.1%; in that of `C=CCn1c(SCC(=O)OCC)nc(C(F)(F)F)cc1=O`, -11.6%.

For the compound `COc1cc2c(cc1OC)C(C(=O)O)C(c1cc(Br)c(O)c(OC)c1)N(C)C2=O` (stereo not drawn), the “hERG current change (%, negative = inhibition) at 10uM” value was 1.57%. For `Cc1nn(-c2ccc(NC(=O)c3ccncc3)cc2)c(C)c1Cl` the value was 9.73%. In the case of `O=C(Nc1cccc(S(=O)(=O)N2CCOCC2)c1)c1ccco1` it was -9.84%; in that of `NP(=O)(OCCCc1ccccc1)Oc1ccccc1` (stereo not drawn), 4.28%; in that of `O=C1/C(=C\c2ccc(O)c(O)c2)SC(=S)N1Cc1ccccc1`, 16.3%. Turning to `CCOC(=S)NC(=O)c1sc2ccccc2c1Cl`, the “hERG current change (%, negative = inhibition) at 10uM” value is on record as 14.4%. In the case of `CCOc1ccccc1NC(=O)C1CCN(C(=O)NCc2ccccc2)CC1` it was 9.9%. On to `CN1CCN(C(=O)C2CCN(S(=O)(=O)c3ccc(F)cc3)CC2)CC1`, for which the “hERG current change (%, negative = inhibition) at 10uM” value is 5.18%. In the case of `c1ccc(CSC2=NCCS2)cc1`, the “hERG current change (%, negative = inhibition) at 10uM” value is given as 9.34%. For `CCCCCNC(=O)Cn1c(=O)c2c(ncn2CC(C)C)n(Cc2ccccc2)c1=O` the value was 5.64%; for `C=CCn1c(SCC(=O)c2[nH]c(C)c(C(=O)OCC)c2C)nc2scc(-c3ccccc3)c2c1=O`, 11.4%; for `CC1CCc2c(sc3c2C2=NS(=O)(=O)CCN2C=N3)C1` (stereo not drawn), 3.13%. In the case of `CN(CC(=O)Nc1ccc(F)c(F)c1F)C(=O)c1ccc2c(c1)NC(=O)CS2` it was -21%; in that of `Brc1ccc(-c2nnc(-c3cccc(Br)c3)o2)cc1`, 1.34%. For `COC(=O)[C@H](Cc1ccccc1)NC(=O)N(C)Cc1ccccc1` the value was 6.03%.

Turning to `CC1CC(C)CN(S(=O)(=O)N2CCCC(C(=O)NCCc3ccccc3)C2)C1` (stereo not drawn), the “hERG current change (%, negative = inhibition) at 10uM” value stood at 8.74%. `O=P1(Nc2cccnc2)COc2ccccc2OC1`: the “hERG current change (%, negative = inhibition) at 10uM” value was determined as 30.6%.

`OCCC1CN(Cc2cnc(-c3ccc(Cl)cc3)nc2)CCN1C1CCCCC1` (stereo not drawn): the “hERG current change (%, negative = inhibition) at 10uM” value was -73.6%.

As to `Cc1cccn2c(=O)c(/C=C(\C#N)C(=O)NC3CCS(=O)(=O)C3)c(Oc3ccccc3Cl)nc12` (stereo not drawn), the “hERG current change (%, negative = inhibition) at 10uM” value was found to be 0.945%. As for `CC(Sc1nnnn1C)C(=O)Nc1cc(S(=O)(=O)N2CCCCC2)ccc1Cl` (stereo not drawn), the “hERG current change (%, negative = inhibition) at 10uM” value is given as -28.2%. As to `CCOC(=O)C1CN(c2cc3c(cc2F)c(=O)c(C(=O)O)cn3CC)OC1C(=O)OCC` (stereo not drawn), the “hERG current change (%, negative = inhibition) at 10uM” value was 7.81%. On to `COc1cccc2c(=O)cn[nH]c12`, for which the “hERG current change (%, negative = inhibition) at 10uM” value is given as 4.63%.

Regarding `COc1cc2ccccc2cc1C(=O)O`, the “hERG current change (%, negative = inhibition) at 10uM” value is given as 8.36%. For the compound `CCc1nc2ccccc2c(C(=O)OCC(=O)N2CC(C)OC(C)C2)c1C` (stereo not drawn), the “hERG current change (%, negative = inhibition) at 10uM” value is on record as 17%. In the case of `Cc1ccc(N=C2CCCCCN2C)c(C#N)c1.Cl` it was -7.98%. As for `O=C(NCCCCCCNC(=O)c1ccc(Br)s1)c1ccc(Br)s1`, the “hERG current change (%, negative = inhibition) at 10uM” value is given as 1.78%. With `O=Cc1cnc(N2CCN(c3ccccc3)CC2)s1`, the “hERG current change (%, negative = inhibition) at 10uM” value is given as 0.238%. As for `CC1CN(C(=O)CCC(=O)NCCCN2C(C)CCCC2C)c2ccccc2O1` (stereo not drawn), the “hERG current change (%, negative = inhibition) at 10uM” value is recorded as -10.9%.

For the compound `Cc1c(C(=O)NCc2ccc3c(c2)OCO3)oc2ccc(Br)cc12`, the “hERG current change (%, negative = inhibition) at 10uM” value is 1.72%. For `CCC1CCCCN1C(=O)Cn1c(=O)oc2ccccc21` (stereo not drawn) the value was 2.66%. `Cn1c(CNS(=O)(=O)c2ccc(Br)cc2)n[nH]c1=S`: the “hERG current change (%, negative = inhibition) at 10uM” value is on record as -36.9%. For `COc1ccccc1CCC(=O)NNC(=O)c1ccccc1` the value was -8.3%. In the case of `CC(=O)Nc1ccc2c(c1)ncn2-c1ccccc1` it was 3.72%; in that of `COc1ccc(-c2cc(C3CC3)nc(N)c2C#N)cc1`, 19.4%; in that of `CCc1c(C)nc2[nH]nc(NC(=O)C(F)(F)F)n2c1=O`, 14.6%. For the compound `COc1ccc(CCNC(=O)CC2SC(=NCc3ccccc3OC)NC2=O)cc1` (stereo not drawn), the “hERG current change (%, negative = inhibition) at 10uM” value came out at 41.6%. In the case of `COc1cc(S(=O)(=O)N2CCOCC2)ccc1NC(=O)CN1c2cccc3cccc(c23)S1(=O)=O` it was -11.8%; in that of `COc1ccc(CCNC(=O)c2sc3cc(C)ccc3c2Cl)cc1`, 3.77%.

Take `C[C@@H]1O[C@@H](OC2C(O)C(OCCc3ccc(O)c(O)c3)OC(CO)C2OC(=O)/C=C/c2ccc(O)c(O)c2)[C@H](O)[C@H](O)[C@H]1O` (stereo partly drawn): the “hERG current change (%, negative = inhibition) at 10uM” value was 18.8%.

As for `O=C(O)c1ccc2c3c(cccc13)C(=O)N(c1cccc3ccccc13)C2=O`, the “hERG current change (%, negative = inhibition) at 10uM” value was 34.3%.

For `CCc1cc2cc3c(cc2nc1SCC(=O)Nc1cc(OC)c(OC)cc1C(=O)O)OCO3`, the “hERG current change (%, negative = inhibition) at 10uM” value is reported as -4.72%. For `COc1ccc(/C(O)=C2/C(=O)C(=O)N(c3nc(C)c(C)s3)C2c2ccco2)cc1` (stereo not drawn) the value was 10.5%.

With `COc1cc(C2NC(=O)NC(C)=C2C(=O)OC2CCCC(C)C2)cc(Br)c1O` (stereo not drawn), the “hERG current change (%, negative = inhibition) at 10uM” value is reported as -2.79%. As to `Cn1cc(Br)c(C(=O)NNC(=O)c2cccc(Br)c2)n1`, the “hERG current change (%, negative = inhibition) at 10uM” value was -3.76%. For the compound `Cc1ccc(C)c(C(=O)CCC(=O)OCn2nnc3ccccc3c2=O)c1`, the “hERG current change (%, negative = inhibition) at 10uM” value is listed as 8.38%. In the case of `COC(=O)c1sc(N)c(C(=O)OC)c1COC(=O)CNS(=O)(=O)c1ccc(C)c(C)c1` it was -18.9%. With `CC1CCCN(C(=O)C(=O)Nc2ccc3nc4n(c(=O)c3c2)CCCCC4)C1` (stereo not drawn), the “hERG current change (%, negative = inhibition) at 10uM” value is on record as -17.8%. For `COc1ccc(/C=N/NC(=O)C(=O)N2CCN(c3ccccc3OC)CC2)cc1` the value was -27.6%. Regarding `COc1ccc(N(CC(=O)NCc2ccc(F)cc2)C(=O)Cn2nnc(-c3ccc(C)o3)n2)cc1OC`, the “hERG current change (%, negative = inhibition) at 10uM” value is given as -2.94%.

`O=[N+]([O-])c1cc(Cl)ccc1N1CCCCC1`: the “hERG current change (%, negative = inhibition) at 10uM” value came to 2.47%. In the case of `CCOC(=O)c1sc(=S)n(Cc2ccccc2)c1C`, the “hERG current change (%, negative = inhibition) at 10uM” value was 4.15%. `COc1cc(/C=N/Nc2nncn2N)ccc1OCc1c(C)no[n+]1[O-]`: the “hERG current change (%, negative = inhibition) at 10uM” value is recorded as 17%. Consider `CNC(=O)C1=C(C)Nc2nc3ccccc3n2C1c1cccc(OC)c1` (stereo not drawn), for which the “hERG current change (%, negative = inhibition) at 10uM” value is on record as -7.64%.

`COCCNC(=O)c1ccccc1-c1ccccc1C(=O)O`: the “hERG current change (%, negative = inhibition) at 10uM” value was -8.63%. Consider `CSc1ccccc1Nc1ncnc(N)n1`, for which the “hERG current change (%, negative = inhibition) at 10uM” value is 6.71%. For `CCCC(=O)N1CCN(c2ccc(NC(=O)c3cccs3)cc2)CC1` the value was -18.2%; for `Cc1ccc(N(CC(=O)N/N=C/c2cccc(Br)c2)S(C)(=O)=O)cc1`, 13.6%. In the case of `Cc1ccc(C)c(OCC(=O)NNC(=O)C2CCC2)c1` it was 25.2%; in that of `COc1ccc(NC(=O)C2CCCN(S(=O)(=O)c3cccc4nonc34)C2)c(OC)c1` (stereo not drawn), 5.29%; in that of `COc1ccc(CC(=O)N2N=C(C)CC2(O)C(F)(F)F)cc1OC` (stereo not drawn), 9.76%. `CCCCN(C(=O)C1=NN(c2cc(C)ccc2C)C(=O)CC1)c1c(N)n(CCC)c(=O)[nH]c1=O`: the “hERG current change (%, negative = inhibition) at 10uM” value is recorded as 1.63%.

With `Cc1cccc2cc3c(N)c(C(=O)N4CCOCC4)sc3nc12`, the “hERG current change (%, negative = inhibition) at 10uM” value was 1.55%. Regarding `CC(C)(C(=O)c1cccnc1)c1cccnc1`, the “hERG current change (%, negative = inhibition) at 10uM” value is recorded as 7.84%. Consider `Cn1c(SCC(=O)NCCc2ccccc2)ncc(C(=O)Nc2ccc(F)cc2)c1=O`, for which the “hERG current change (%, negative = inhibition) at 10uM” value was determined as 9.45%. As for `CNC(=O)c1csc(-c2ccncc2)n1`, the “hERG current change (%, negative = inhibition) at 10uM” value is 18.2%. On to `COc1ccccc1Nc1ncc(-c2cccs2)s1`, for which the “hERG current change (%, negative = inhibition) at 10uM” value is 0.587%.

Consider `CCOC(=O)N1CCN(C(=O)COC(=O)CNC(=O)c2ccc(Cl)cc2Cl)CC1`, for which the “hERG current change (%, negative = inhibition) at 10uM” value was -41.2%. As to `Cc1cccc(S(=O)(=O)N2CCn3cccc3C2C)c1` (stereo not drawn), the “hERG current change (%, negative = inhibition) at 10uM” value is listed as -6.56%.

As for `CC1CCCCC1NC(=O)c1ccc(NC2=NC3CS(=O)(=O)CC3S2)cc1` (stereo not drawn), the “hERG current change (%, negative = inhibition) at 10uM” value is reported as 12.9%. In the case of `CCCC(=O)Nc1ncnc2c1ncn2[C@@H]1O[C@@H]2COP(=O)([O-])O[C@H]2[C@H]1OC(=O)CCC.[Na+]` it was 19.6%; in that of `O=S(=O)(NCC1CCCO1)c1ccc(Cl)cc1` (stereo not drawn), 14.6%; in that of `CCNC(=O)CCSc1nnc(-c2ccncc2)o1`, 19.3%. For `COc1ccc(/C=C2\SC(=O)N(CCNC(=O)Cc3coc4cc(OC)ccc34)C2=O)cc1` the value was 13.7%; for `CCN(CC(=O)Nc1cccc(OC)c1)CC(=O)Nc1ccc(C)cc1Cl`, -10.4%. For `CC(C)OC(=O)C(C)(C)Oc1ccc(C(=O)c2ccc(Cl)cc2)cc1` the value was -3.67%; for `C#CCOCCOCCOCCNc1nc(N2CCN(C(=O)CCCCCCCCCCNC(=O)[C@H]([C@@H](C)CC)n3cc(CCCCCN)nn3)CC2)nc(N2CCN(C(=O)CCCCCCCCCCNC(=O)[C@@H]([C@H](C)O)n3cc(C)nn3)CC2)n1`, -7.88%; for `COc1ccc(-n2ncc3c2CC(C)(C)CC3NC(=O)c2ccnn2C)cc1` (stereo not drawn), -78%. As for `CCC(=O)Nc1nc2n(n1)C(c1ccc(OC)cc1)C=C(c1ccccc1)N2` (stereo not drawn), the “hERG current change (%, negative = inhibition) at 10uM” value is recorded as 7.26%. With `CC(C)CCc1noc(CN2CCN(CC(=O)NC(C)C)CC2)n1`, the “hERG current change (%, negative = inhibition) at 10uM” value is recorded as -4.24%.

`CCCOC(=O)c1ccc(NC(=O)c2cc(Cl)ccc2OC)cc1`: the “hERG current change (%, negative = inhibition) at 10uM” value is on record as -6.88%.

The values are drawn from publication PMC4336329 (PLoS ONE, 2015).
